The source gives no read counts; variants with many changes may rest on few reads.
B1: CPEB3 Ribozyme (parent)
chain: UAACAGGGGGCCACAGCAGAAGCGUUCACGUCGCAGCCCCUGUCAGAUUCUGGUGAAUCUGCGAAUUCUGCUGUAUAUCUC

Variants of: B1
Assay: self-cleavage, relative activity (ratio to wild type); higher = more cleavage; in vitro, sequencing
Outline: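 For each CPEB3 ribozyme variant, relative activity is its cleaved/total read fraction divided by the unmutated ribozyme's. Barcoded error-prone PCR libraries were transcribed by T7 RNA polymerase (5 hours, 37°C) and held in DNase I for 15 min before an EDTA stop, with cleavage occurring throughout. Template-switching reverse transcription and Illumina sequencing were used to read the RNAs. A 5-read minimum applied, and results are the mean of three batches.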
UAACAGGGGGCCACAGCGGAAGCGUUCACGUCGCAGCCCCCGUCAGAUUCCGGUGAAUCUGCGAAUUCUGCUGUAUUUCUC [A18G U41C U51C A77U] gave a self-cleavage of 0.67.
Variant UAACAGGGGGCCACAGCGGAAGCGUUCACGUCGCAGCCCCCGUCAGAUUCUGGUGAAUCUGCGAACUCUGCCGUAUAUCUC [A18G U41C U66C U72C] has a self-cleavage of 0.22.
For UAACAGGGGGCCACAGCGGAAGCGUUCACGUCGCAGCCCCCGUCAGAUUCUGGUGAAUCUGCGAAUUCCGCUGUAUAUCAC [A18G U41C U69C U80A], the self-cleavage was 1.14.
UAACAGGGGGCCACAGCGGAAGCGUUCACGUCGCAGCCCCCGUCAGAUUCUGGUGAAUCUGCGAAUUCUGCUGUAUAACUC [A18G U41C U78A] showed a self-cleavage of 0.74.
Work on UAACAGGGGGCCACAGCGGAAGCGUUCACGUCGCAGCCCCGGUCAGAUUCUGGUGAAUCUGCGAAUUCUGCUGAAUAUCUC [A18G U41G U74A] yielded a self-cleavage of 0.11.
Work on UAACAGGGGGCCACAGCGGAAGCGUUCACGUCGCAGCCCCUGACAGAUUUUGGUGAAUCUGCGAAUUCUGCUGAAUACCUC [A18G U43A C50U U74A U78C] yielded a self-cleavage of 0.78.
UAACAGGGGGCCACAGCGGAAGCGUUCACGUCGCAGCCCCUGACAGAUAUUGGUGAAUCUGCGAAUUCUGCUGUAUAUCUC [A18G U43A U49A C50U] showed a self-cleavage of 0.31.
Work on UAACAGGGGGCCACAGCGGAAGCGUUCACGUCGCAGCCCCUGACAGAUCCUGGUGAAUCUGCGAAUUCUGCUGUAUAACCC [A18G U43A U49C U78A U80C] yielded a self-cleavage of 0.34.
Work on UAACAGGGGGCCACAGCGGAAGCGUUCACGUCGCAGCCCCUGACAGAUUCUGGUGAAUCUGCGAAUUCUGCUGUAUAACUC [A18G U43A U78A] yielded a self-cleavage of 0.77.
UAACAGGGGGCCACAGCGGAAGCGUUCACGUCGCAGCCCCUGCCAGUUUCCGGUGAAUCUGCGAUUUCUGCUGUAUAUCUC [A18G U43C A47U U51C A65U] showed a self-cleavage of 0.02.
In the case of UAACAGGGGGCCACAGCGGAAGCGUUCACGUCGCAGCCCCUGCCAGAUUUUGGUGAAUCUGCGAAUUCUGCUGUAUAUCCC [A18G U43C C50U U80C], the self-cleavage is reported as 0.24.
With UAACAGGGGGCCACAGCGGAAGCGUUCACGUCGCAGCCCCUGCCAGAUUCCGGUGAAUCUGGGAAUUCUGCUGUAUAUCUC [A18G U43C U51C C62G] the self-cleavage was 0.19.
With UAACAGGGGGCCACAGCGGAAGCGUUCACGUCGCAGCCCCUGCCAGAUUCUGGAGAAUCUGCGAAUUCUGCUGUAUAUCUC [A18G U43C U54A] the self-cleavage was 0.47.
UAACAGGGGGCCACAGCGGAAGCGUUCACGUCGCAGCCCCUGCCAGAUUCUGGUGAACCUGCGAAUUCUGCUGAAUAUCUC [A18G U43C U58C U74A] gave a self-cleavage of 0.23.
With UAACAGGGGGCCACAGCGGAAGCGUUCACGUCGCAGCCCCUGUCAGAAACUGGUGAAGCUGCGAAUUCUGCUGUAUAUCUC [A18G U48A U49A U58G] the self-cleavage was 0.42.
Variant UAACAGGGGGCCACAGCGGAAGCGUUCACGUCGCAGCCCCUGUCAGAACCUGGUGAAUCUGCGAAUUCUGCUGUAUAUCUC [A18G U48A U49C] has a self-cleavage of 0.44.
With UAACAGGGGGCCACAGCGGAAGCGUUCACGUCGCAGCCCCUGUCAGAAUCUGGUGAAUCUGCGAACUCUGCUGUGUAUCUC [A18G U48A U66C A75G] the self-cleavage was 0.13.
Work on UAACAGGGGGCCACAGCGGAAGCGUUCACGUCGCAGCCCCUGUCAGACUCUGGUGAAUCUGCGAAUUCUGCUGUGUAUCUC [A18G U48C A75G] yielded a self-cleavage of 0.17.
UAACAGGGGGCCACAGCGGAAGCGUUCACGUCGCAGCCCCUGUCAGACUCUGGUGAAUCUGCGAAUUCUGCUGUAUGUCUC [A18G U48C A77G] gave a self-cleavage of 0.7.
UAACAGGGGGCCACAGCGGAAGCGUUCACGUCGCAGCCCCUGUCAGACUCUGGCGAAUCUGCGGAUUCUGCUGUAUACCUC [A18G U48C U54C A64G U78C] showed a self-cleavage of 0.09.
Variant UAACAGGGGGCCACAGCGGAAGCGUUCACGUCGCAGCCCCUGUCAGACUCUGGUGAAUCGGCGAAUUCUGCUGUAUACCUC [A18G U48C U60G U78C] has a self-cleavage of 0.15.
UAACAGGGGGCCACAGCGGAAGCGUUCACGUCGCAGCCCCUGUCAGAUACUGGUGAAUCUGCGGAUUCUGCUGUAUACCUC [A18G U49A A64G U78C] showed a self-cleavage of 0.29.
For UAACAGGGGGCCACAGCGGAAGCGUUCACGUCGCAGCCCCUGUCAGAUACUGGUGAAUCUGCGAAUUCUUCUGUAUAUCUC [A18G U49A G70U], the self-cleavage was 0.17.
UAACAGGGGGCCACAGCGGAAGCGUUCACGUCGCAGCCCCUGUCAGAUCCUGGUGGUUCUGCGAAUUCUGCUGUAUAUCUC [A18G U49C A56G A57U] gave a self-cleavage of 0.13.
UAACAGGGGGCCACAGCGGAAGCGUUCACGUCGCAGCCCCUGUCAGAUCCUGGUGGAUUUGCGAAUUCUGCUGUAUAUCAC [A18G U49C A56G C59U U80A] showed a self-cleavage of 0.5.
In the case of UAACAGGGGGCCACAGCGGAAGCGUUCACGUCGCAGCCCCUGUCAGAUCCUGGUGAAUCUGCGAACUCUGCUGUAUAUCUC [A18G U49C U66C], the self-cleavage is reported as 0.17.
For UAACAGGGGGCCACAGCGGAAGCGUUCACGUCGCAGCCCCUGUCAGAUUCAGGUGAAUCUGCGAAUUCUGUUGUUUAUCCC [A18G U51A C71U A75U U80C], the self-cleavage was 0.52.
Work on UAACAGGGGGCCACAGCGGAAGCGUUCACGUCGCAGCCCCUGUCAGAUUCAGGCGAAUCUGCGUAUUCUGCUGUAUAUCUC [A18G U51A U54C A64U] yielded a self-cleavage of 0.32.
In the case of UAACAGGGGGCCACAGCGGAAGCGUUCACGUCGCAGCCCCUGUCAGAUUCAGGUGAAUCGGCGAAUUCAGCUGUAUAUCUC [A18G U51A U60G U69A], the self-cleavage is reported as 0.36.
Variant UAACAGGGGGCCACAGCGGAAGCGUUCACGUCGCAGCCCCUGUCAGAUUCCGGUGAAUCUGCGAAUUCUGCUGUAUUUCUC [A18G U51C A77U] has a self-cleavage of 0.6.
With UAACAGGGGGCCACAGCGGAAGCGUUCACGUCGCAGCCCCUGUCAGAUUCCUGUGAAUCUGCGAAUUUUGCUGUAUAUCUC [A18G U51C G52U C68U] the self-cleavage was 0.43.
Work on UAACAGGGGGCCACAGCGGAAGCGUUCACGUCGCAGCCCCUGUCAGAUUCCGGUGAAACUGCGAAUUCUGCAGUAUACCUC [A18G U51C U58A U72A U78C] yielded a self-cleavage of 0.1.
UAACAGGGGGCCACAGCGGAAGCGUUCACGUCGCAGCCCCUGUCAGAUUCCGGUGAAUCCGCGAAUUCUGCUGUAUAUCCC [A18G U51C U60C U80C] showed a self-cleavage of 0.24.
Work on UAACAGGGGGCCACAGCGGAAGCGUUCACGUCGCAGCCCCUGUCAGAUUCCGGUGAAUCUGCGAAAUCUGCUGUAUAUCUC [A18G U51C U66A] yielded a self-cleavage of 0.43.

Reference: the RNAGym collection of RNA variant scans (doi:10.1093/nar/gkz1192)
